Test results published in the RNAGym collection of RNA variant scans (doi:10.1093/nar/gkz1192).
Read counts are not given, so values of variants with three or more changes are uncertain.

B1: CPEB3 Ribozyme (parent)
chain: UAACAGGGGGCCACAGCAGAAGCGUUCACGUCGCAGCCCCUGUCAGAUUCUGGUGAAUCUGCGAAUUCUGCUGUAUAUCUC

Variants of: B1
Experiment: self-cleavage, relative activity (ratio to wild type); higher = more cleavage; in vitro, sequencing
How it was run: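 For each CPEB3 ribozyme variant, relative activity is its cleaved/total read fraction divided by the unmutated ribozyme's. Barcoded error-prone PCR libraries were transcribed by T7 RNA polymerase (5 hours, 37°C) and held in DNase I for 15 min before an EDTA stop, with cleavage occurring throughout. Template-switching reverse transcription and Illumina sequencing were used to read the RNAs. A 5-read minimum applied, and results are the mean of three batches.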

Variant | self-cleavage
G7U U43A A45U U69C | 0.05
G7U U43C A45G A57C U66C | 0.34
G7U U51C A56G | 0.06
G7U U58C U69A | 0.2
G7U U72A A77U | 0.18
G8A A13C A15C C38U U49A | 0.13
G8A A13C C79U | 0.22
G8A A13G A15U U41A | 0.33
G8A A13G A28U U76C | 0.23
G8A A13G U31C U67G | 0.09
G8A A13U A15C A21G A45U U49A | 0.19
G8A A13U A15G | 0.12
G8A A13U A18U U26A A65G U74A | 0.04
G8A A13U A20G U31A A35U U51C | 0.06
G8A A13U A20G U74A | 0.32
G8A A13U A28G U49C | 0.11
G8A A13U C14A A45U U51C | 0.06
G8A A13U C14G C32A A65G U67C | 0.05
G8A A13U G19U U67C U72C | 0.07
G8A A13U G42A A47U U80C | 0.2
G8A A13U U26C U60A A65G | 0.07
G8A A13U U31A U51A U58C U67A | 0.05
G8A A13U U60C U78C | 0.16
G8A A15C A18U U31A | 0.05

Variant | self-cleavage
G8A A15G A21G A47U | 0.32
G8A A15G U26C U43C U67A C81U | 0.06
G8A A15G U41A U54A U76A | 0.38
G8A A15G U43A A57G G73U | 0.09
G8A A15G U48C U67C A75G | 0.11
G8A A15G U51A A56G A64G | 0.05
G8A A15U U25C A35U | 0.05
G8A A15U U25G U26C U49A A75U | 0.04
G8A A15U U26C U43C U66C | 0.04
G8A A15U U41C | 0.37
G8A A15U U48C U51C A57G U69C | 0.05
G8A A18G A20G U26A U43C U67A U69G | 0.03
G8A A18G A21G A35G U69C | 0.18
G8A A18G A35U U51A A56U U58C U69A | 0.05
G8A A18G U25C | 0.1
G8A A18U A20U | 0.49
G8A A18U A35U U54A U76A | 0.05
G8A A18U A57G U76C U80C | 0.04
G8A A18U A65G | 0.06
G8A A18U C23U | 0.05
G8A A18U G33A U72C | 0.05
G8A A18U G61U | 0.1
G8A A20G A28G C59A G73C | 0.07
G8A A20G A28G U41G A47U A65G A75U | 0.03

Variant | self-cleavage
G8A A20G A45U U67C U69A U80C | 0.05
G8A A20G U66C | 0.2
G8A A20G U67A | 0.07
G8A A20U A21G U41A A64U | 0.04
G8A A20U A35G U74C U78A | 0.31
G8A A20U U49C | 0.17
G8A A20U U60C | 0.04
G8A A21C G33C A56G A57G | 0.4
G8A A21G A28U U49C U72A | 0.03
G8A A21G A45C U54C U66C | 0.05
G8A A21G C68G | 0.07
G8A A21G G22A A45C U49A G53A | 0.16
G8A A21G U26C U41C | 0.13
G8A A21G U26C U67C | 0.05
G8A A21G U51A U60C A64U A77G | 0.04
G8A A28C U41C U51C U66C U72C | 0.26
G8A A28C U43C G63A | 0.08
G8A A28G U49C U72A A77G | 0.05
G8A A28G U54G U60C U69A U80C | 0.05
G8A A28U A35C U41A U43C A45G U54C | 0.04
G8A A28U G63A | 0.21
G8A A28U U54C A77U | 0.11
G8A A28U U58A | 0.07
G8A A28U U66C U76A | 0.24

Variant | self-cleavage
G8A A35C C38A | 0.05
G8A A35G U41A | 0.07
G8A A35G U41C A56U | 0.64
G8A A35G U43A G52A U74C U80C | 0.69
G8A A35G U66C | 0.28
G8A A35U U43A A75G | 0.09
G8A A35U U72C U74C | 0.06
G8A A45C U72A U80C | 0.06
G8A A45G G53C U69C U78G | 0.05
G8A A45G U49C | 0.37
G8A A47G U48A U67C | 0.07
G8A A47U A56G U60C U66G | 0.06
G8A A56G U80C | 0.05
G8A A57G U69A | 0.17
G8A A65G A77U | 0.08
G8A A65G G70U A77G U80C | 0.02
G8A C11A C29U U48A A56U | 0.04
G8A C11G A21G C62A | 0.04
G8A C11G A56G A64G U69A | 0.05
G8A C11U C40A U48G U60A A77G U78C | 0.03
G8A C11U U26G U60G A64U | 0.04
G8A C11U U41C U49A U69C | 0.04
G8A C12U A13U A35U U41A | 0.04
G8A C12U A28U A64G | 0.15

Variant | self-cleavage
G8A C12U U41C | 0.28
G8A C14A C29U U58C U60C U72C | 0.09
G8A C14U A15G | 0.15
G8A C23A U26C A64U U66A | 0.07
G8A C23U U26C U54C | 0.06
G8A C29A G36A U43A U51G U78C | 0.05
G8A C32U U72A | 0.07
G8A C34G A57G | 0.36
G8A C37A U54C | 0.06
G8A C37G U49C A65G U66C | 0.04
G8A C37U A56G | 0.06
G8A C50U U51C U54C | 0.1
G8A G10A A13U A35U U80C | 0.02
G8A G10A G30A U78C | 0.07
G8A G10A U25C A45C A64G | 0.19
G8A G10A U26A U54C G55C U67C | 0.04
G8A G10A U31C A57G | 0.05
G8A G10A U60A | 0.12
G8A G10U G24U A45G A75U | 0.04
G8A G16A C17U U25A U43A A65G | 0.06
G8A G19A G52A A64G | 0.18
G8A G19C G30A U41C A56G U67C C71A | 0.03
G8A G19U U51C | 0.16
G8A G22C A35G U60C | 0.2

Variant | self-cleavage
G8A G22C A35G U60C U80A | 0.14
G8A G24A A56G A64U U66C | 0.06
G8A G33A A57G | 0.16
G8A G46C A77U | 0.13
G8A G46U A47G | 0.14
G8A G52A U54C | 0.08
G8A G52C U69G | 0.05
G8A U25C A35G A45U U67A | 0.15
G8A U25C A45U | 0.4
G8A U25C C38U A45G | 0.32
G8A U25C U41C U43C A56G U66C | 0.06
G8A U25C U66C | 0.07
G8A U25G U31A U51G | 0.06
G8A U26A U43C G61U | 0.08
G8A U26C A35G U41A A64U U69A U74C | 0.03
G8A U26C A35U U49C | 0.15
G8A U26C A56G U60C C71U U72C | 0.11
G8A U26C C32A U41A G52U C62U | 0.21
G8A U26C U41C | 0.3
G8A U26G U31A A47C | 0.04
G8A U31A C32U U66C | 0.17
G8A U31C A64G U69C | 0.17
G8A U31C U43C U72A | 0.05
G8A U41A U58C A64G A65G C68G | 0.04

Variant | self-cleavage
G8A U41C A45G U69A | 0.21
G8A U41C A57G U74C | 0.1
G8A U41C A57G U76C | 0.1
G8A U41G A56G U74C | 0.42
G8A U48A U80C | 0.08
G8A U48C A56G U69C U72C G73U | 0.12
G8A U51C A64G | 0.06
G8A U58C U69A | 0.13
G8A U60A A64U U69C U78C | 0.05
G8C A13C U26C U69A | 0.11
G8C A13G A15G A28U U43C | 0.54
G8C A13G A45G A57G | 0.07
G8C A13G G24A U51C U60A | 0.54
G8C A13U A21G G33U A57U A64U | 0.1
G8C A15G A18U G19U A20G A56U U67C | 0.15
G8C A15G A77G | 0.33
G8C A15U U25C A56G A57C C62U A64G | 0.09
G8C A18G A20G A28G | 0.29
G8C A18G A21U A28G U43C U72C U80C | 0.05
G8C A18G A56G | 0.26
G8C A18G G19A C39G U69A | 0.05
G8C A18G G30U U43A U60C U78A | 0.05
G8C A18G U58A | 0.48
